Patent US20190240289A1 (Pieris, published 2019)

T1: IL-4 receptor alpha on TF-1 cells (human, UniProt P24394 26-825)
T1 sequence: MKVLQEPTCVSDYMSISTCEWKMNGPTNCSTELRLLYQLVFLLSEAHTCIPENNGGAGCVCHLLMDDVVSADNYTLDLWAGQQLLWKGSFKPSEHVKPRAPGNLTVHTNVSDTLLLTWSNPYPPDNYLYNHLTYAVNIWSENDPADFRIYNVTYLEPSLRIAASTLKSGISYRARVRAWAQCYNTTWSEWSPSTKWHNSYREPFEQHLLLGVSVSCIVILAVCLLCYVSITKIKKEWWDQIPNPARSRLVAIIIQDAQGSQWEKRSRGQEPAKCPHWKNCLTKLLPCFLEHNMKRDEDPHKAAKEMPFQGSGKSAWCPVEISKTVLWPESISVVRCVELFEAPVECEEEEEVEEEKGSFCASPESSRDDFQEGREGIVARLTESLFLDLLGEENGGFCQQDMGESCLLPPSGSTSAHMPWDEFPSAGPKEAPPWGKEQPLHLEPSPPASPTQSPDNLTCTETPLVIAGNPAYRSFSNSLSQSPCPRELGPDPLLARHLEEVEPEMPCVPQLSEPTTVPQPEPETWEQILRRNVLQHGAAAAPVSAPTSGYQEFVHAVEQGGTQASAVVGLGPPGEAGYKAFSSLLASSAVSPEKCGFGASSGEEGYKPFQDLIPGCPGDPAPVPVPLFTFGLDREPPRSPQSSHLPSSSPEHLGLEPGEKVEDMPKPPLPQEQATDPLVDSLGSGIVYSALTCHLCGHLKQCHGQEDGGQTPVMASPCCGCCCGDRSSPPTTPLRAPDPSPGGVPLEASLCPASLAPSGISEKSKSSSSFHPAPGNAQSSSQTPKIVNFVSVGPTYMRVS

T2: IL-4 receptor alpha-Fc (R&D Systems) (human, UniProt P24394 26-232)
T2 construct: not shown: Fc part of the bought fusion protein; It was captured by an anti human-Fc antibody
T2 sequence: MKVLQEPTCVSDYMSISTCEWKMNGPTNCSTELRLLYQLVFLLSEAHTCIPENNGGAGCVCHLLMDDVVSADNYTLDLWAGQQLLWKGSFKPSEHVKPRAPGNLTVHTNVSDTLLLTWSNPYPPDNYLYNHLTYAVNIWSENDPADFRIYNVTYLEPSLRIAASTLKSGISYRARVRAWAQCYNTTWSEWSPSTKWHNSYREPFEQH

T3: IL-4 receptor alpha (human, UniProt P24394 26-232, limits assumed)
T3 construct: The target as named in the worded statements; also called interleukin-4 receptor alpha chain
T3 sequence: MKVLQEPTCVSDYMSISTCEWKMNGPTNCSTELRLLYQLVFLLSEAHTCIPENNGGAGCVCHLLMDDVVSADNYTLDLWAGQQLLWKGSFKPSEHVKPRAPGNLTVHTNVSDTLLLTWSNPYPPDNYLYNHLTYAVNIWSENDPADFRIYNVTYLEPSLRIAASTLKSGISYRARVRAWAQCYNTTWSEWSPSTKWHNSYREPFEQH


What was measured:
[1] = target: T1, IL-4 receptor alpha on TF-1 cells; test: cell-based or functional assay
[2] = target: T2, IL-4 receptor alpha-Fc (R&D Systems); test: Biacore (SPR): about 400 RU IL-4 receptor alpha-Fc captured on a CM-5 chip through an anti-human-Fc antibody, mutein injected at a single concentration of 25 nM, 1:1 Langmuir fit
Description: FIG. 4 depicts IC50 values from FIG. 3 and results of Biacore® measurements of the muteins of human tear lipocalin with affinity for IL-4 receptor alpha. Approximately 400 RU of IL-4 receptor alpha-Fc was captured on a CM-5 chip, which had previously been coated with an anti human-Fc monoclonal antibody. Subsequently, mutein in a single concentration of 25 nM was passed over the flowcell and changes in resonance units recorded. Reference signals from a flow cell that was equally treated apart from not having any IL-4 receptor alpha-Fc was subtracted and the resulting data fitted to a 1:1 Langmuir model using the BIAevaluation software. Due to the slow dissociation kinetics of the double referencing was used by subtracting the signals from a flow cell that was equally treated apart from not having any IL-4 receptor alpha-Fc and subtracting the signal from an experiment where only sample buffer was injected. The resulting data was fitted to a 1:1 Langmuir model with mass-transport limitation using the BIAevaluation software.
Affinity measurements were performed essentially as described in Example 9 of WO 2006/56464 with the modifications that approximately 400 RU of IL-4 receptor alpha-Fc (R&D Systems) was immobilized (instead of 2000 RU of human CTLA-4 or murine CTLA-4-Fc used as target in WO 2006/56464) and 100 μl of mutein was injected at a concentration of 25 nM (instead of 40 μl sample purified lipocalin muteins at concentrations of 5-0.3 μM as used in WO 2006/56464).

IL-4 receptor alpha = target: T3, IL-4 receptor alpha; test: told in words in the legend of FIGS. 2A-2F; Biacore data in FIG. 4
[3] = target: T1, IL-4 receptor alpha on TF-1 cells; test: cell-based or functional assay; remark: listed apart in the source

IC50, IL-4-induced TF-1 cell proliferation (3H-thymidine incorporation) [1] [nM] | IC50, IL-13-induced TF-1 cell proliferation (3H-thymidine incorporation) [1] [nM] | Kd [2] [nM] | binding result (IL-4 receptor alpha) | IC50 (read off the curve), TF-1 cell proliferation, panel A (IL-4 by the legend paragraph 166) [3] [nM] | Binder
3.6 | 14.8 | 0.023 |  |  | S276.2 K04 (designed binder) ASDEEIQDVSGTWYLKAMTVDPRCPRAYYSSVTPMTLTTLEGGNLEAKFTAQRSGRWQKYKLVLEKTDEPGKYTASGGRHVAYIIRSHVKDHYIFHSEGLCPGQPVPGVWLVGRDPKNNLEALEDFEKAAGARGLSTESILIPRQSETSSPGSA
 |  |  | binds |  | SEQ ID NO 5 (designed binder) ASDEEIQDVSGTWYLKAMTVDLRCPRAYYWSVTPMTLTTLEGGNLEAKFTALRIGRWQSYKLVLEKTDEPGKYTASGGRHVAYIIRSHVKDHYIFHSEGLCPGQPVPGVWLVGRDPKNNLEALEDFEKAAGARGLSTESILIPRQSETSSPGSA
4.4 | 17.7 | 0.0241 |  |  | S308.5 N01 (designed binder) ASDEEIQDVSGTWYLKAMTVDYRCPRAYYHSVTPMTLTTLEGGNLEAKFTAHRAGRWQKYKLVLEKTDEPGKYTASGGRHVAYIIRSHVKDHYIFHSEGLCPGQPVPGVWLVGRDPKNNLEALEDFEKAAGARGLSTESILIPRQSETSSPGSA
5.9 | 27.6 | 0.0348 |  | ~20 | S308.5 N20 (designed binder) ASDEEIQDVSGTWYLKAMTVDERCPRAHYGSVTPMTLTTLEGGNLEAKFTAMRLGRWQKYKLVLEKTDEPGKYTASGGRHVAYIIRSHVKDHYIFHSEGLCPGQPVPGVWLVGRDPKNNLEALEDFEKAAGARGLSTESILIPRQSETSSPGSA
3.8 | 7.4 | 0.0201 |  | ~7 | S308.5 F08 (designed binder) ASDEEIQDVSGTWYLKAMTVDSRCPRAVYNSVTPMTLTTLEGGNLEAKFTAQRKGRWQKYKLVLEKTDEPGKYTASGGRHVAYIIRSHVKDHYIFHSEGLCPGQPVPGVWLVGRDPKNNLEALEDFEKAAGARGLSTESILIPRQSETSSPGSA
 |  |  | binds |  | SEQ ID NO 3 (designed binder) ASDEEIQDVSGTWYLKAMTVDSRCPRAYYESVTPMTLTTLEGGNLEAKLTLQRKGRWQEMKDVLEKTDEPGKYTASGGRHVAYIIRSHVKDHYIFHSEGLCPGQPVPGVWLVGRDPKNNLEALEDFEKAAGARGLSTESILIPRQSETSSPGSA
9.1 | 35.9 | 0.11 |  |  | S191.4-B24 (designed binder) ASDEEIQDVSGTWYLKAMTVDSRCPRAYYSSVTPMTLTTLEGGNLEAKFTAQRSGRWQEYKLVLEKTDEPGKYTASGGRHVAYIIRSHVKDHYIFHSEGLCPGQPVPGVWLVGRDPKNNLEALEDFEKAAGARGLSTESILIPRQSETSSPGSA
7.5 | 15.1 | 0.00132 |  | ~20 | S308.3O10 (designed binder, also called S308.3 010) ASDEEIQDVSGTWYLKAMTVDKRCPRAYYRSVTPMTLTTLEGGNLEAKFTAKRNGRWQPYKLVLEKTDEPGKYTASGGRHVAYIIRSHVKDHYIFHSEGLCPGQPVPGVWLVGRDPKNNLEALEDFEKAAGARGLSTESILIPRQSETSSPGSA
5.7 | 22.9 | 0.0724 |  | ~20 | S308.5 L04 (designed binder) ASDEEIQDVSGTWYLKAMTVDSRCPRAYYVSVTPMTLTTLEGGNLEAKFTAARIGRWQSYKLVLEKTDEPGKYTASGGRHVAYIIRSHVKDHYIFHSEGLCPGQPVPGVWLVGRDPKNNLEALEDFEKAAGARGLSTESILIPRQSETSSPGSA
5.3 | 14.4 | 0.0249 |  |  | S308.5 L20 (designed binder) ASDEEIQDVSGTWYLKAMTVDNRCPRAKYDSVTPMTLTTLEGGNLEAKFTAHRRGRWQQYKLVLEKTDEPGKYTASGGRHVAYIIRSHVKDHYIFHSEGLCPGQPVPGVWLVGRDPKNNLEALEDFEKAAGARGLSTESILIPRQSETSSPGSA
